Test results: the supplement of paper PMC12462457
Structures can show the parent of a compound that is named as a salt. ± gives the standard deviation of the averaged measurements. Some of the results follow.

Tested on: OVCAR8
Assay: cell count relative to DMSO vehicle (fold change); OVCAR8 is a high-grade serous ovarian cancer line and CX-5461 an RNA polymerase I inhibitor; higher = more surviving senescent cells (less killing)
Settings: senescence inducer: CX-5461 3 µM 48 h, then 6 d recovery (CX senescent), exposure time 24 h

SMILES	cell count (compound dose 1 µM)	cell count (compound dose 5 µM)
CCC[C@H](N[C@@H](C)C(=O)N1[C@H](C(=O)O)C[C@@H]2CCCC[C@@H]21)C(=O)OCC [Perindopril (erbumine)]	1.2 ± 0.31	1.15 ± 0.12
O=c1c2ccccc2nc(/C=C/c2cccnc2)n1Cc1ccccc1 [RAD51 Inhibitor B02]	1.2 ± 0.16	0.977 ± 0.06
COC(=O)C1=CO[C@@H](O[C@@H]2O[C@H](CO)[C@@H](O)[C@H](O)[C@H]2O)[C@@H]2[C@@H](C)[C@@H](O)C[C@H]12 [Loganin]	1.09 ± 0.22	1.05 ± 0.12
COC1=CC(c2cc3ccccc3[nH]2)=N/C1=C\c1[nH]c(C)cc1C [Obatoclax (Mesylate)]	1.19 ± 0.019	0.872 ± 0.093
C[C@@H]1C[C@H](N)C[C@H](c2ccncc2NC(=O)c2ccc(F)c(-c3c(F)cccc3F)n2)C1 [PIM-447 (dihydrochloride)]	1.1 ± 0.23	1.11 ± 0.19
COCC[n+]1c2c(n(Cc3cnccn3)c1C)C(=O)c1ccccc1C2=O [Sepantronium (bromide)]	0.209 ± 0.096	0.122 ± 0.045
O=c1c(O[C@@H]2O[C@H](CO)[C@@H](O)[C@H](O)[C@H]2O)c(-c2ccc(O)cc2)oc2cc(O)cc(O)c12 [Astragalin]	1.093 ± 0.0035	1.01 ± 0.088
Cn1cc(C2=C(c3coc4ccc(F)cc34)C(=O)NC2=O)c2cc3c(cc21)OCO3	1.14 ± 0.29	1.08 ± 0.077
CO[C@]1(CC[C@@H](C)CO[C@@H]2O[C@H](CO)[C@@H](O)[C@H](O)[C@H]2O)O[C@H]2C[C@H]3[C@@H]4CC=C5C[C@@H](O[C@@H]6O[C@H](CO)[C@@H](O[C@@H]7O[C@@H](C)[C@H](O)[C@@H](O)[C@H]7O)[C@H](O)[C@H]6O[C@@H]6O[C@@H](C)[C@H](O)[C@@H](O)[C@H]6O)CC[C@]5(C)[C@H]4CC[C@]3(C)[C@H]2[C@@H]1C [Methyl protodioscin]	1.22 ± 0.16	0.495 ± 0.21
COC(=O)C1=CC[C@@]23CC[C@@H]([C@@](C)(/C=C/C=C(\C)C(=O)O)OC2=O)[C@@]3(OC(C)=O)CC1 [Pseudolaric Acid B]	1.18 ± 0.18	1.17 ± 0.13
CN1C(=O)C(C)(C)Oc2c(-c3cn(C)c(=O)c4[nH]ccc34)cc(S(C)(=O)=O)cc21	1.17 ± 0.12	0.956 ± 0.038
CN1C(=O)/C(=C2/C(=O)Nc3ccccc32)c2ccccc21 [Meisoindigo]	0.994 ± 0.19	1.01 ± 0.23
CCOC(=O)Nc1cc(-c2ccc(C)c(NS(C)(=O)=O)c2)nn2c(C)nnc12 [Bromosporine]	1.16 ± 0.035	1.01 ± 0.067
CCCCCC1CC1CC1CC1CCCCCCCC(=O)O (stereo unspecified)	1.06 ± 0.24	1.03 ± 0.087
C[C@@H]1CCN(C(=O)CC#N)C[C@@H]1N(C)c1ncnc2[nH]ccc12	1.07 ± 0.061	0.904 ± 0.12
C[C@@H]1CCN(C(=O)CC#N)C[C@@H]1N(C)c1ncnc2[nH]ccc12 [Tofacitinib]	1 ± 0.098	0.891 ± 0.12
O=C(/C=C/c1ccc(O)c(O)c1)OCCc1ccccc1	1.19 ± 0.17	1.26 ± 0.069
CC[C@H](C)C(=O)O[C@H]1CCC=C2C=C[C@H](C)[C@H](CC[C@@H]3C[C@@H](O)CC(=O)O3)[C@H]21 [Mevastatin]	0.958 ± 0.23	0.898 ± 0.2
CC(=O)[C@]1(O)Cc2c(O)c3c(c(O)c2[C@@H](O[C@H]2C[C@H](N)[C@H](O)[C@H](C)O2)C1)C(=O)c1ccccc1C3=O [Idarubicin (hydrochloride)]	1.05 ± 0.044	0.856 ± 0.071
CN(C)c1ncnc2c1ncn2[C@@H]1O[C@H](CO)[C@@H](N)[C@H]1O [Puromycin aminonucleoside]	0.935 ± 0.095	0.901 ± 0.025
CCCOc1ccn2c(C(C)=O)cc(-c3ccccc3S(C)(=O)=O)c2c1	1.28 ± 0.098	1.07 ± 0.13

SMILES	cell count (compound dose 1 µM)	cell count (compound dose 5 µM)
Cc1nc(=O)c2cc(CN(C)c3ccc(C(=O)N[C@@H](CCC(=O)O)C(=O)O)s3)ccc2[nH]1 [Raltitrexed]	1.06 ± 0.049	1.12 ± 0.24
Cc1cc(O)c(-c2ccc([C@@H](C)CN)cc2)c2c1[nH]c(=O)c1sccc12	0.902 ± 0.13	0.914 ± 0.14
OC[C@H]1O[C@@H](Oc2cc(O)cc(/C=C/c3ccc(O)cc3)c2)[C@H](O)[C@@H](O)[C@@H]1O [Polydatin]	1.04 ± 0.21	1.06 ± 0.064
CCC(C)(C)C(=O)N(O)Cc1ccccc1	1.16 ± 0.24	1.12 ± 0.23
Cc1ccc(C(C)C)cc1O [Carvacrol]	1.06 ± 0.16	1.09 ± 0.037
COc1ccc(F)c(F)c1C(=O)c1cnc(NC2CCN(S(C)(=O)=O)CC2)nc1N	1.03 ± 0.19	1.12 ± 0.11
CCN1CCN(Cc2ccc(NC(=O)c3ccc(C)c(Oc4ncnc5cc(OC)c(OC)cc45)c3)cc2C(F)(F)F)CC1	1.07 ± 0.23	0.644 ± 0.1
O=C1OCCN1/N=C/c1ccc([N+](=O)[O-])o1 [Furazolidone]	1.17 ± 0.3	1.16 ± 0.054
O=S(=O)(O)c1cc(O)ccc1O [Calcium dobesilate]	1.07 ± 0.055	0.976 ± 0.17
Cc1c(O)c(=O)ccn1C	1.08 ± 0.051	1.15 ± 0.16
COc1cc([C@@H]2c3cc4c(cc3[C@@H](O[C@@H]3O[C@@H]5CO[C@@H](C)O[C@H]5[C@H](O)[C@H]3O)[C@H]3COC(=O)[C@H]23)OCO4)cc(OC)c1O [Etoposide]	1.13 ± 0.088	1.06 ± 0.087
CN(C)C(=S)NN=C(c1ccccn1)c1ccccn1	1.27 ± 0.43	1.34 ± 0.14
O=C(NOC[C@H](O)CO)c1ccc(F)c(F)c1Nc1ccc(I)cc1F	0.335 ± 0.095	0.0665 ± 0.0092
COc1ccc2c(c1)C(c1ccc(F)cc1)=C(CN1CCCC1)CO2	1.06 ± 0.16	1.03 ± 0.049
O=C1CCC(N2Cc3cc(CNC(=O)C(F)(F)c4ccc(Cl)cc4)ccc3C2=O)C(=O)N1 (stereo unspecified) [Cereblon modulator 1]	1.03 ± 0.039	0.97 ± 0.21
CC1CCC2(OC1)OC1CC3C4CC=C5CC(OC6OC(CO)C(O)C(O)C6OC6OC(C)C(O)C(O)C6O)CCC5(C)C4CCC3(C)C1C2C (stereo unspecified) [Prosapogenin A]	0.975 ± 0.027	0.162 ± 0.055
O=c1cc(-c2ccc(O)c(O)c2)oc2cc(O[C@@H]3O[C@H](CO)[C@@H](O)[C@H](O)[C@H]3O)cc(O)c12 [Cynaroside]	1.08 ± 0.19	1.26 ± 0.33
CC1=C(CO)C(=O)O[C@@H]([C@@H](C)[C@H]2CC[C@H]3[C@@H]4C[C@H]5O[C@]56[C@@H](O)C=CC(=O)[C@]6(C)[C@H]4CC[C@]23C)C1 [Withaferin A]	1.14 ± 0.52	0.0195 ± 0.0064
CC(=O)OC1CC2CCC1(C)C2(C)C (stereo unspecified) [Bornyl acetate]	1.04 ± 0.24	1.09 ± 0.21
C=CC(=O)Nc1ccc2ncnc(Nc3cccc(Br)c3)c2c1	1.16 ± 0.21	1.02 ± 0.04
COc1cc(/C=C(\C#N)C(N)=O)cc(CSc2nc3ccccc3s2)c1O	1.19 ± 0.067	1.142 ± 0.0071

SMILES	cell count (compound dose 1 µM)	cell count (compound dose 5 µM)
CNCC[C@H](CSc1ccccc1)Nc1ccc(S(=O)(=O)NC(=O)c2ccc(N3CCN(CC4=C(c5ccc(Cl)cc5)CCC(C)(C)C4)CC3)cc2)cc1S(=O)(=O)C(F)(F)F [Desmorpholinyl Navitoclax-NH-Me]	0.894 ± 0.18	0.73 ± 0.098
COc1cc(O)cc(O)c1C(=O)/C=C/c1ccccc1 [Cardamonin]	1.14 ± 0.12	1.18 ± 0.24
Cc1cnc(NC(=O)C2=C(O)c3ccccc3S(=O)(=O)N2C)s1	1.06 ± 0.2	1.05 ± 0.25
CC(C)Oc1ccc(C(=O)N[C@H](CNC(=O)CN(C)C)Cc2ccc(-c3cn4cccc([C@H](C)O)c4n3)cc2)cc1Cl	0.957 ± 0.15	1.12 ± 0.061
COc1ccc(/C=C/C(=O)c2c(O)cc(OC)cc2OC)cc1 [Flavokawain A]	1.13 ± 0.12	1.25 ± 0.13
C=C(C)[C@@H]1CC[C@]2(C(=O)O)CC[C@]3(C)[C@H](CC[C@@H]4[C@@]5(C)CC[C@H](O)[C@@](C)(CO)[C@@H]5CC[C@]43C)[C@@H]12 [23-Hydroxybetulinic acid]	1.11 ± 0.18	1.18 ± 0.3
CCOc1cc2ncc(-c3cc(N)nc(F)c3)n2cc1S(=O)(=O)C(C)(C)C	1.27 ± 0.25	1.23 ± 0.13
OC[C@H]1O[C@@H](n2cnc3c(NCc4ccco4)ncnc32)[C@H](O)[C@@H]1O [Kinetin riboside]	1.11 ± 0.067	0.998 ± 0.11
O=c1cc(-c2ccc(O)c(-c3c(O)cc(O)c4c(=O)cc(-c5ccc(O)cc5)oc34)c2)oc2cc(O)cc(O)c12 [Amentoflavone]	1.09 ± 0.073	0.964 ± 0.11
COc1ccccc1S(=O)(=O)Nc1ccc2c(c1)CN(C)C(=O)N2	0.957 ± 0.19	1.02 ± 0.041
COc1cc(O)c(CC=C(C)C)c(O)c1C(=O)/C=C/c1ccc(O)cc1 [Xanthohumol]	1.03 ± 0.14	1.05 ± 0.041
CN(C)CCOc1ccc(/C(=C(/CCCl)c2ccccc2)c2ccccc2)cc1 [Toremifene (citrate)]	1.07 ± 0.058	1.07 ± 0.059
C[C@H]1C[C@H]2[C@@H]3CCC4=CC(=O)C=C[C@]4(C)[C@@]3(F)[C@@H](O)C[C@]2(C)[C@@]1(O)C(=O)CO [Betamethasone]	1.12 ± 0.22	1.03 ± 0.15
Cc1noc(C)c1-c1cc(Cl)c(Nc2ccccc2C(=O)NO)c(Cl)c1	1.08 ± 0.24	1.16 ± 0.3
COc1cc2nccc(Oc3ccc(NC(=O)C4(C(=O)Nc5ccc(F)cc5)CC4)cc3)c2cc1OC [Cabozantinib malate (XL184)]	1.22 ± 0.04	1.2 ± 0.31
COc1cc2nccc(Oc3ccc(NC(=O)C4(C(=O)Nc5ccc(F)cc5)CC4)cc3)c2cc1OC	1.32 ± 0.16	1.36 ± 0.23
CCOc1nc2cccc(C(=O)O)c2n1Cc1ccc(-c2ccccc2-c2noc(=O)[nH]2)cc1 [Azilsartan]	1.02 ± 0.25	0.926 ± 0.0099
FC1(F)N=C(c2ccc(Cl)cc2)SC1(F)c1ccc(Cl)cc1 (stereo unspecified) [Fluorizoline]	1.04 ± 0.068	0.685 ± 0.19
Cc1onc(C(=O)N2CCN(C(c3ccc(Cl)cc3)c3ccc(Cl)cc3)CC2)c1[N+](=O)[O-]	0.0155 ± 0.012	0.015 ± 0.0028
Nc1ccccc1NC(=O)c1ccc(CNC(=O)OCc2cccnc2)cc1 [Entinostat (MS-275)]	1.26 ± 0.13	1.28 ± 0.023
CCCCC1=NC2(CCCC2)C(=O)N1Cc1ccc(-c2ccccc2-c2nnn[nH]2)cc1	1.09 ± 0.091	0.982 ± 0.17
